{"source": "paper PMC12820563", "note": "The other results are listed elsewhere or left out. The list includes weakly bound sequences."}
{"target": "T1, MBP-FoxP3dN (UniProt Q99JB6)", "T1 sequence": "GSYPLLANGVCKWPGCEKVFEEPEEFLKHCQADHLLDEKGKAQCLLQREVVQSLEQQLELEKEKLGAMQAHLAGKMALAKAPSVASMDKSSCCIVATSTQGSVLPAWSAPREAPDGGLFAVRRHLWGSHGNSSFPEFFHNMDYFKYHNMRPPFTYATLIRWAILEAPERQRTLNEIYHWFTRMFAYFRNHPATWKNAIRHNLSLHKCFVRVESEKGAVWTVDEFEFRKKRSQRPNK", "assay": "PD-seq (MBP pull-down with sequencing)", "conditions": "20 mM Tris-HCl pH 7.5, 100 mM NaCl, 1.5 mM MgCl2, 0.4 uM protein, 0.1 uM dsDNA library, 30 min, room temperature, amylose pull-down; high values mean tight binding; double strand, one strand shown"}
{"sequence": "GATGATTGTTCTCCCAGCTGATGAATTCTAAGCATCGAGTAAACAAATTTTCCTAATCTTTCTGTTCAAGCGCCATCTAC", "binding signal (RPM ratio (pull-down/input))": 0.758}
{"sequence": "GATGATTGTTCTCCCAGCTGATGAATTGCTTTCTTCGAGTAAACAAATTTTCCTAATCTTTCTGTTCAAGCGCCATCTAC", "binding signal (RPM ratio (pull-down/input))": 1.22}
{"sequence": "GATGATTGTTCTCCCAGCTGATGAATTGGTCGACTCGAGTAAACAAATTTTCCTAATCTTTCTGTTCAAGCGCCATCTAC", "binding signal (RPM ratio (pull-down/input))": 0.342}
{"sequence": "GATGATTGTTCTCCCAGCTGATGAATTACCGTGCTCGAGTAAACAAATTTTCCTAATCTTTCTGTTCAAGCGCCATCTAC", "binding signal (RPM ratio (pull-down/input))": 0.434}
{"sequence": "GATGATTGTTCTCCCAGCTGATGAATTCGTACTTTCGAGTAAACAAATTTTCCTAATCTTTCTGTTCAAGCGCCATCTAC", "binding signal (RPM ratio (pull-down/input))": 0.425}
{"sequence": "GATGATTGTTCTCCCAGCTGATGAATTGGTCGGATCGAGTAAACAAATTTTCCTAATCTTTCTGTTCAAGCGCCATCTAC", "binding signal (RPM ratio (pull-down/input))": 0.251}
{"sequence": "GATGATTGTTCTCCCAGCTGATGAATTGGCTAAGTCGAGTAAACAAATTTTCCTAATCTTTCTGTTCAAGCGCCATCTAC", "binding signal (RPM ratio (pull-down/input))": 0.226}
{"sequence": "GATGATTGTTCTCCCAGCTGATGAATTAAGTTAATCGAGTAAACAAATTTTCCTAATCTTTCTGTTCAAGCGCCATCTAC", "binding signal (RPM ratio (pull-down/input))": 0.454}
{"sequence": "GATGATTGTTCTCCCAGCTGATGAATTAATGTGCTCGAGTAAACAAATTTTCCTAATCTTTCTGTTCAAGCGCCATCTAC", "binding signal (RPM ratio (pull-down/input))": 1.13}
{"sequence": "GATGATTGTTCTCCCAGCTGATGAATTGTGTTCCTCGAGTAAACAAATTTTCCTAATCTTTCTGTTCAAGCGCCATCTAC", "binding signal (RPM ratio (pull-down/input))": 2.61}
{"sequence": "GATGATTGTTCTCCCAGCTGATGAATTAAGTATTTCGAGTAAACAAATTTTCCTAATCTTTCTGTTCAAGCGCCATCTAC", "binding signal (RPM ratio (pull-down/input))": 2.99}
{"sequence": "GATGATTGTTCTCCCAGCTGATGAATTCAGCTTATCGAGTAAACAAATTTTCCTAATCTTTCTGTTCAAGCGCCATCTAC", "binding signal (RPM ratio (pull-down/input))": 1.68}
{"sequence": "GATGATTGTTCTCCCAGCTGATGAATTTTACGACTCGAGTAAACAAATTTTCCTAATCTTTCTGTTCAAGCGCCATCTAC", "binding signal (RPM ratio (pull-down/input))": 0.307}
{"sequence": "GATGATTGTTCTCCCAGCTGATGAATTACATTGTTCGAGTAAACAAATTTTCCTAATCTTTCTGTTCAAGCGCCATCTAC", "binding signal (RPM ratio (pull-down/input))": 1.45}
{"sequence": "GATGATTGTTCTCCCAGCTGATGAATTCTCGCGGTCGAGTAAACAAATTTTCCTAATCTTTCTGTTCAAGCGCCATCTAC", "binding signal (RPM ratio (pull-down/input))": 0.272}
{"sequence": "GATGATTGTTCTCCCAGCTGATGAATTACGCCTTTCGAGTAAACAAATTTTCCTAATCTTTCTGTTCAAGCGCCATCTAC", "binding signal (RPM ratio (pull-down/input))": 5.25}
{"sequence": "GATGATTGTTCTCCCAGCTGATGAATTGCGTGCATCGAGTAAACAAATTTTCCTAATCTTTCTGTTCAAGCGCCATCTAC", "binding signal (RPM ratio (pull-down/input))": 2.82}
{"sequence": "GATGATTGTTCTCCCAGCTGATGAATTTCGCAGGTCGAGTAAACAAATTTTCCTAATCTTTCTGTTCAAGCGCCATCTAC", "binding signal (RPM ratio (pull-down/input))": 0.853}
{"sequence": "GATGATTGTTCTCCCAGCTGATGAATTGCGATATTCGAGTAAACAAATTTTCCTAATCTTTCTGTTCAAGCGCCATCTAC", "binding signal (RPM ratio (pull-down/input))": 1.7}
{"sequence": "GATGATTGTTCTCCCAGCTGATGAATTACCCTTTTCGAGTAAACAAATTTTCCTAATCTTTCTGTTCAAGCGCCATCTAC", "binding signal (RPM ratio (pull-down/input))": 0.278}
{"sequence": "GATGATTGTTCTCCCAGCTGATGAATTGACTGAATCGAGTAAACAAATTTTCCTAATCTTTCTGTTCAAGCGCCATCTAC", "binding signal (RPM ratio (pull-down/input))": 0.24}
{"sequence": "GATGATTGTTCTCCCAGCTGATGAATTAAAGGACTCGAGTAAACAAATTTTCCTAATCTTTCTGTTCAAGCGCCATCTAC", "binding signal (RPM ratio (pull-down/input))": 0.262}
{"sequence": "GATGATTGTTCTCCCAGCTGATGAATTCCCAACTTCGAGTAAACAAATTTTCCTAATCTTTCTGTTCAAGCGCCATCTAC", "binding signal (RPM ratio (pull-down/input))": 0.279}
{"sequence": "GATGATTGTTCTCCCAGCTGATGAATTTGTAAGTTCGAGTAAACAAATTTTCCTAATCTTTCTGTTCAAGCGCCATCTAC", "binding signal (RPM ratio (pull-down/input))": 2.97}
{"sequence": "GATGATTGTTCTCCCAGCTGATGAATTAGATACCTCGAGTAAACAAATTTTCCTAATCTTTCTGTTCAAGCGCCATCTAC", "binding signal (RPM ratio (pull-down/input))": 0.583}
{"sequence": "GATGATTGTTCTCCCAGCTGATGAATTGTGACGATCGAGTAAACAAATTTTCCTAATCTTTCTGTTCAAGCGCCATCTAC", "binding signal (RPM ratio (pull-down/input))": 0.494}
{"sequence": "GATGATTGTTCTCCCAGCTGATGAATTCTTCCCGTCGAGTAAACAAATTTTCCTAATCTTTCTGTTCAAGCGCCATCTAC", "binding signal (RPM ratio (pull-down/input))": 0.162}
{"sequence": "GATGATTGTTCTCCCAGCTGATGAATTGCAGGCATCGAGTAAACAAATTTTCCTAATCTTTCTGTTCAAGCGCCATCTAC", "binding signal (RPM ratio (pull-down/input))": 1.3}
{"sequence": "GATGATTGTTCTCCCAGCTGATGAATTGGCTATTTCGAGTAAACAAATTTTCCTAATCTTTCTGTTCAAGCGCCATCTAC", "binding signal (RPM ratio (pull-down/input))": 1.27}
{"sequence": "GATGATTGTTCTCCCAGCTGATGAATTTTGAGCTTCGAGTAAACAAATTTTCCTAATCTTTCTGTTCAAGCGCCATCTAC", "binding signal (RPM ratio (pull-down/input))": 0.336}
{"sequence": "GATGATTGTTCTCCCAGCTGATGAATTCGACGCTTCGAGTAAACAAATTTTCCTAATCTTTCTGTTCAAGCGCCATCTAC", "binding signal (RPM ratio (pull-down/input))": 0.536}
